From US20050282943A1, “Solubilized additive composition comprising acidic and basic constituents” (INVISTA NORTH AMERICA S.A R.L., priority 2004, published 2005)

Assay: Dissolution of water insoluble additive in demineralized water on adding a counterpart salt forming species (visual)

dissolution (observation) (Comparative Example 11, a further two additional amounts of hexamethylenediamine 0.005 mol)	dissolution (observation) (Comparative Example 11, additional hexamethylenediamine 0.005 mol (second amount))	dissolution (observation) (Comparative Example 11, an additional 10 g of demineralized water)	dissolution (observation) (Irganox 1310 2.07 g + 0.43 g hexamethylenediamine in 20 mL water (Comparative Example 10))	additive content of solution (Irganox 1310 + KOH (1:1 mol) in demineralized water (Example 10))	additive content of solution (Irganox 1310 + NaOH (1:1 mol) in demineralized water (Example 9))	dissolution (observation) (Irganox 1310 + hexamethylenediamine in 20 mL water, heated to 60° C. (Comparative Example 10))	dissolution (observation) (2.5 g of isolated salt in 20 mL water, heated to 60° C. (Comparative Example 9))	dissolution (observation) (2.5 g of isolated salt, a further 200 mL of water at 25° C. (Comparative Example 9))	solubility in water (conclusion in words) (Comparative Examples 9, 10 and 11, listed as 1,6-hexamethylenediamminium bis(3,5-di-t-butyl-4-hydroxyphenyl)propionate salt)	Compound	dissolution (observation) (Irganox 1310 0.001 mol + KOH 0.001 mol in 1 g demineralized water (Example 10))	dissolution (observation) (Irganox 1310 0.01 mol + NaOH 0.01 mol in 10 g demineralized water (Example 9))	dissolution (observation) (Irganox 1310 2.78 g in 10 g demineralized water + hexamethylenediamine 0.005 mol (Comparative Example 11))	behaviour of the additive in demineralized water alone (before any counterpart salt forming species is added)	dissolution (observation) (2.5 g of isolated salt in 20 mL water with stirring (Comparative Example 9))
failed to dissolve the precipitate	failed to dissolve the precipitate	failed to dissolve the suspension	a thick white precipitate remains	about 20 w %	about 21 w %	fails to dissolve the product				CC(C)(C)c1cc(CCC(=O)O)cc(C(C)(C)C)c1O [Irganox 1310, 3-(3,5-di-t-butyl-4-hydroxyphenyl)propionic acid]	rapidly dissolved to form a clear colourless solution	rapidly dissolved to form a clear colourless solution	wetted out but formed a precipitate of a heavy white suspension	failed to wet out and floated on the surface of the water	
							failed to dissolve the product	failed to dissolve the product	substantially insoluble in water	CC(C)(C)c1cc(CCC(=O)O)cc(C(C)(C)C)c1O.CC(C)(C)c1cc(CCC(=O)O)cc(C(C)(C)C)c1O.NCCCCCCN [1,6-hexamethylenediammonium bis(3,5-di-t-butyl-4-hydroxyphenyl)propionate, reference compound]					failed to dissolve, but rather formed a thick suspension
